Test results taken from PubChem BioAssay AID2112 (National Center for Advancing Translational Sciences (NCATS), 2009).
Hit rate of the full screen: of about 240,000 compounds, about 15 (0.006%) were called active. This list was built around the results that the source calls inconclusive (neither active nor inactive); the mix of calls is not that of the screen. The call rests on the fitted dose curve; in most records, active means well fitted inhibition curve with a large enough effect; inconclusive means small, poorly fitted or top-dose-only effect, or effect the other way, or another doubt; inactive means no such curve, though single readings can be large or run the other way. No potency is given beside an inconclusive call; the fits are too rough.
Potency means the concentration at half of the fitted maximal effect; tags describe the fitted curve by direction and shape.
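Wherever activity change, negative = inhibition is given: 0% = enzyme with vehicle and -100% = no enzyme basal signal.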

What follows are compounds tested against Lysosomal alpha-glucosidase (Homo sapiens) (UniProt P10253) (assay: qHTS Assay for Inhibitors and Activators of Human alpha-Glucosidase From Spleen Homogenate). Conditions: 4-MU-alpha-glucoside fluorescence; series mostly up to 79.9 µM; activity change, negative = inhibition: at the top concentration.
In short: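 Human spleen homogenate (1 ug) with 4-methylumbelliferyl-alpha-D-glucopyranoside (1 mM final) in 50 mM citrate/phosphate pH 5.0, 0.01% Tween-20; 40 min at 37 C. Stopped at pH 10; 4-MU fluorescence Ex 365/Em 440 nm; AC50 by Hill fit.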
For `CN1c2ccccc2-c2nc3ccccc3n2C1c1ccco1` (stereo unspecified), the Potency was inconclusive [activator, partial curve].
In the case of `COc1ccccc1N(O)C1CC(=O)N(c2ccc(Br)cc2)C1=O` (stereo unspecified), the “activity change, negative = inhibition” value is reported as inactive: 0.274%.
In the case of `O=S(=O)(c1ccc(OCC2CO2)cc1)c1ccc(OCC2CO2)cc1` (stereo unspecified), the Potency is reported as inconclusive [inhibitor, partial curve].
For `CN1N=C(C(C)(C)C)CC1=O`, the “activity change, negative = inhibition” value was inactive: 9.85%.
For `CCCn1c(=NC(C)=O)c(C(=O)OCC)cc2c(=O)n3ccccc3nc21`, the Potency was inconclusive [activator, partial curve].
In the case of `NC(=S)NNc1cccc2cccnc12`, the “activity change, negative = inhibition” value is reported as inactive: 2.29%.
With `CN1CCN(S(=O)(=O)c2cnccc2N2CCN(c3cccc(Cl)c3)CC2)CC1` the Potency was inconclusive [inhibitor, single point].
`CC(C)OC(=O)c1c(N)n(CC2CCCO2)c2nc3ccccc3nc12` (stereo unspecified) was tested, and the Potency was inconclusive [activator, single point].
`FC(F)(F)c1ccccc1Cl` was tested, and the “activity change, negative = inhibition” value was inactive: 7.47%.
With `Cc1ccc(S(=O)(=O)N2CCCC2c2nc3ccccc3s2)cc1` (stereo unspecified) the Potency was inconclusive [inhibitor, single point].
With `CCOC(=O)c1cc2c(=O)n3ccccc3nc2n(C(C)C)c1=NC(=O)c1ccncc1` the Potency was inconclusive [activator, single point].
For `Cc1ccc2nc(-c3ccc(N)cc3)sc2c1S(=O)(=O)O`, the Potency was inconclusive [activator, partial curve].
In the case of `Cc1cc(NCCCN2CCOCC2)n2c(nc3ccccc32)c1C#N`, the Potency is reported as inconclusive [activator, single point].
In the case of `Cc1ccc(C)c(OCC(=O)Nn2c(C)nc3ccccc3c2=O)c1`, the Potency is reported as inconclusive [inhibitor, full curve, poor fit].
`COc1ccc(CNC(=O)C2CCCN(S(=O)(=O)c3c(C)nn(C)c3C)C2)cc1` (stereo unspecified) was tested, and the “activity change, negative = inhibition” value was inactive: 2.59%.
In the case of `COc1cc(-c2cn(S(=O)(=O)c3cccc4nsnc34)nc2N)cc(OC)c1OC`, the Potency is reported as inconclusive [inhibitor, single point].
With `CSc1ccccc1NC(=O)CN(C)CC(=O)NCc1ccccc1` the Potency was inconclusive [inhibitor, single point].
With `Cc1nc(C(=O)Nc2ccccc2)sc1C1(C)CC(c2cccc([N+](=O)[O-])c2)=NO1` (stereo unspecified) the Potency was inconclusive [inhibitor, partial curve].
For `O=S(=O)(c1ccc(N2CCC(c3ccc(Cl)cc3)=N2)cc1)N(CCO)CCO`, the Potency was inconclusive [activator, partial curve].
In the case of `Cc1cc(C)cc(-n2nnc(C(=O)NCc3ccccc3Cl)c2N)c1`, the Potency is reported as inconclusive [inhibitor, single point].
In the case of `COc1ccccc1[C@H]1C(c2ccc(F)cc2)=NN(c2ccccc2)[C@@H]1CO`, the Potency is reported as inconclusive [activator, partial curve].
In the case of `C=CCSc1nnc(-c2cc3c(s2)-c2ccccc2CC3)o1`, the Potency is reported as inconclusive [activator, single point].
In the case of `CCOC(=O)CCc1c(C)c2ccc(O)cc2oc1=O`, the Potency is reported as inconclusive [activator, partial curve].
In the case of `O=c1ccc2cc(O[C@H]3O[C@@H](CO)[C@@H](O)[C@@H](O)[C@@H]3O)c(O)cc2o1`, the Potency is reported as inconclusive [activator, partial curve].
In the case of `CCCN1CCCc2ccccc21`, the “activity change, negative = inhibition” value is reported as inactive: 0.0735%.
For `C=CCn1c(NS(=O)(=O)c2ccccc2)c(S(=O)(=O)c2ccc(C)cc2)c2nc3ccccc3nc21`, the “activity change, negative = inhibition” value was inactive: 3.65%.
In the case of `NC(=O)C(=CNc1nc(-c2ccc(Cl)c(Cl)c2)cs1)C(N)=O`, the “activity change, negative = inhibition” value is reported as inactive: -2.51%.
In the case of `O=C(O)C[C@@H]1C(=O)O[C@@H]2C(COC(=O)c3cc(O)c(O)c(O)c3)O[C@@H](OC(=O)c3cc(O)c(O)c(O)c3)[C@@H](OC(=O)c3cc(O)c(O)c4c3[C@H]1[C@H](O)C(=O)O4)[C@H]2OC(=O)c1cc(O)c(O)c(O)c1` (stereo partly specified), the Potency is reported as inconclusive [activator, single point].
`CCOC(=O)COc1cc(N2C(=O)CSCC2=O)c(Cl)cc1Cl` was tested, and the Potency was inconclusive [inhibitor, full curve, poor fit].
For `CC1COC2=C1C(=O)C(=O)c1c2ccc2c1CCCC2(C)C` (stereo unspecified), the Potency was “inactive”.
In the case of `[Cl-].[Cl-].[Hg+2]`, the “activity change, negative = inhibition” value is reported as inactive: -2.99%.
`COC(=O)c1cc2c(=O)n3ccccc3nc2n(C)c1=N` was tested, and the Potency was inconclusive [activator, full curve].
For `CN1C(=O)C(=Cc2ccc(N3CCCCC3)o2)C(=O)N(C)C1=S`, the “activity change, negative = inhibition” value was inactive: -5.01%.
`O=c1oc2ccccc2c(Nc2ccc(O)cc2)c1[N+](=O)[O-]` was tested, and the “activity change, negative = inhibition” value was inactive: -10.3%.
With `Cc1cccc(-n2nnnc2SCC(=O)Nc2cccc(S(N)(=O)=O)c2)c1` the “activity change, negative = inhibition” value was inactive: -1.94%.
For `O=C(Nc1ccncc1)C1CC1c1ccccc1` (stereo unspecified), the Potency was inconclusive [inhibitor, single point].
With `COc1ccc(C(=O)NCCSc2ccccc2)cc1OC` the Potency was inconclusive [inhibitor, full curve, poor fit].
For `CCOC(=O)C1=C(N)Oc2cc(C)oc(=O)c2C1c1cccnc1` (stereo unspecified), the Potency was inconclusive [inhibitor, single point].
In the case of `COC(=O)C1=CN(C2CC2)C=C(C(=O)OC)C1c1ccccc1OC`, the Potency is reported as inconclusive [activator, partial curve].
In the case of `CCCCc1cc(=O)oc2c(CN(C)C)c(O)c(Cl)cc12`, the Potency is reported as inconclusive [activator, partial curve].
With `Cc1ccc2sc(NNC(=O)C3=COCCO3)nc2c1C` the “activity change, negative = inhibition” value was inactive: 9.75%.
For `CCCSc1nc2sc3c(c2c(=O)[nH]1)CCN(Cc1ccccc1)C3`, the Potency was inconclusive [activator, partial curve].
For `CCOC(=O)c1cnc2c(cnn2C)c1NCc1ccc(OC)cc1`, the Potency was inconclusive [inhibitor, partial curve].
With `C/C=C\C=C\C(=O)N1CC2(CC(c3cccc(NC(=O)CC)c3)=NO2)C[C@H]1C(N)=O` (stereo partly specified) the “activity change, negative = inhibition” value was inactive: 5.49%.
In the case of `N#Cc1ccc(CSc2nnc(NC(=O)c3ccc4ncsc4c3)s2)cc1`, the Potency is reported as inconclusive [inhibitor, partial curve, poor fit].
For `O=C1CN(C(=O)COc2ccc(Br)cc2)c2ccccc2N1`, the Potency was inconclusive [inhibitor, full curve, poor fit].
`O=C1c2ccccc2NC(c2ccccn2)N1c1ccc(Cl)cc1` (stereo unspecified) was tested, and the Potency was inconclusive [inhibitor, single point].
For `COc1ccccc1NC(=S)Nc1cccc(F)c1`, the Potency was inconclusive [inhibitor, partial curve, poor fit].
`CN(C)CCCn1c(N)c(C#N)c2nc3ccccc3nc21` was tested, and the Potency was inconclusive [activator, partial curve].
With `CCOc1ccc(N(CC(=O)Nc2cccc(C)c2C)S(=O)(=O)c2c(C)[nH]c(=O)[nH]c2=O)cc1` the “activity change, negative = inhibition” value was inactive: -7.78%.
In the case of `Cc1cc(SC(C)C(=O)NCC(=O)Nc2ccc(F)c(F)c2F)nc2ccccc12` (stereo unspecified), the Potency is reported as inconclusive [inhibitor, single point].
In the case of `Cc1c(N)cc(N)cc1C(=O)O`, the “activity change, negative = inhibition” value is reported as inactive: -1.03%.
`COc1ccc(-c2cn[nH]c2N)c(OC)c1` was tested, and the Potency was inconclusive [inhibitor, full curve, poor fit].
With `Cc1cccc(N=c2oc3cc(O)ccc3cc2C(N)=O)c1` the Potency was inconclusive [activator, partial curve].
In the case of `Cc1ccc2cc(/C=N/Nc3nc4ccccc4[nH]3)c(Cl)nc2c1`, the “activity change, negative = inhibition” value is reported as inactive: -2.98%.
With `Cc1c(C)c2c(C)[nH]nc2oc1=O` the Potency was inconclusive [inhibitor, full curve, poor fit].
For `Cc1ccc(S(=O)(=O)N2CCN(C(=O)c3cccs3)CC2)cc1C`, the Potency was inconclusive [inhibitor, partial curve, poor fit].
`COC(=O)[C@H](CC(C)C)NC(=O)c1ccc(NC[C@@H](N)CS)cc1-c1cccc2ccccc12` was tested, and the “activity change, negative = inhibition” value was inactive: -4.25%.
`CCCCc1cc(=O)oc2c(CN(CC)CC)c(O)c(Cl)cc12` was tested, and the Potency was inconclusive [activator, partial curve].
For `CC(C)(C)c1cc[n+](C2=C([O-])c3ccccc3C(=O)/C2=N\S(=O)(=O)c2ccccc2)cc1`, the “activity change, negative = inhibition” value was inactive: -11.7%.
For `Cc1cc2nc(CCl)cc(=O)n2[nH]1`, the “activity change, negative = inhibition” value was inactive: -3.47%.
`O=C(NCCCN1CCOCC1)c1ccc2c(c1)N(Cc1ccccc1)CCS2` was tested, and the Potency was inconclusive [activator, single point].
With `COc1ccc(-c2csc(-c3cccs3)n2)c(OC)c1` the Potency was inconclusive [inhibitor, full curve, poor fit].
In the case of `N#CCSc1n[nH]c2nc3c(c(=O)n12)C1(CCCC1)Cc1ccccc1-3`, the Potency is reported as inconclusive [activator, single point].
In the case of `Cc1cc(NC(=O)c2cc3ccccc3o2)cc(C)c1OCC(=O)N1CCOCC1`, the Potency is reported as inconclusive [inhibitor, single point].
With `O=[N+]([O-])C(Br)Br` the “activity change, negative = inhibition” value was inactive: 3.74%.
For `O=c1oc2cc(O)ccc2cc1-c1ccc(F)cc1`, the Potency was inconclusive [activator, partial curve].
In the case of `Cc1cccc(-n2c(=O)c(C#N)cc3c(=O)n4ccccc4nc32)c1`, the Potency is reported as inconclusive [activator, partial curve].
With `O=C(Nc1ccc(Oc2cccnc2)cc1)c1ccccc1F` the Potency was inconclusive [inhibitor, full curve, poor fit].
With `c1ccc2c(c1)OCCOCCOCCOCCO2` the “activity change, negative = inhibition” value was inactive: 10%.
`N#Cc1cc2c(=O)n3ccccc3nc2n(CCCN2CCOCC2)c1=O` was tested, and the Potency was inconclusive [activator, partial curve].
